# Assay results from PubChem BioAssay (NCI).
#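 Dose response: 5 concentrations. Exposure: 48 h. Format: 96-well plates. Endpoint: linear interpolation; highest concentration if not reached. The concentration for 50% growth inhibition is given as GI50. At the TGI there is no net growth.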 Activity calls are given as the source filed them. Rule as the data show it: active = GI50 below about 0.43 µM; inactive = the rest.
# Test system: NCI-H322M lung
# Assay: growth of human tumour cells (NCI), 48 h
SMILES,GI50,TGI,outcome
COc1ccc([As]=[As]c2ccc(OC)c(NCS(=O)(=O)O)c2)cc1NCS(=O)(=O)O (stereo unspecified),3.11 µM,12.6 µM,–
C=C(C)c1ccccc1 (tested in a mixture with another compound),–,> 100 µM,–
CSc1nc2c(nc(N)n2C2OC(CO)C(O)C(O)C2O)c(=O)n1C (stereo unspecified),–,> 100 µM,–
CCN(Cc1cccnc1)c1ccc(CO)c(Cl)c1,28.2 µM,> 100 µM,–
OC1c2c(ccc3c2CCC3)CC12Cc1ccccc1C2 (stereo unspecified),–,32.4 µM,–
Clc1ccc(C2=Nc3ccccc3SC(c3cccs3)C2)cc1 (stereo unspecified),–,29 µM,–
Cc1ccc(C(=Nc2ccccc2)N=P(c2ccccc2)(c2ccccc2)c2ccccc2)cc1,1.56 µM,6.32 µM,–
S=C(S)N1CCOCC1,–,> 100 µM,–
COC1CC(C)(NC(C)=O)C2OC(c3ccccc3)OCC2O1 (stereo unspecified),–,> 100 µM,–
COC(=O)C1CC(C(=O)OC)c2nc3cc([N+](=O)[O-])ccc3nc21 (stereo unspecified),–,> 100 µM,–
C(=Nc1ccccc1C1SCCCS1)c1ccccc1,–,> 100 µM,–
O=C(O)CCc1ccc(-c2ccccc2)[nH]1,–,> 100 µM,–
O=[N+]([O-])C(=C1NCCN1)C(Cl)=C(Cl)Cl,–,> 100 µM,–
C[C@H](NC1=CC(=O)C(N[C@@H](C)[C@H](O)c2ccccc2)=CC1=O)[C@H](O)c1ccccc1,–,> 100 µM,–
O=C(OCc1ccccc1)N1N=NC2C1C1CC(OCc3ccccc3)(OCc3ccccc3)C2O1 (stereo unspecified),–,> 100 µM,–
COc1oc(C(=O)NC2CCCCC2)c(-c2ccc(Cl)cc2)c1S(=O)(=O)c1ccccc1,–,> 100 µM,–
C[n+]1[se]c2ccccc2c1Cl,–,> 74.3 µM,–
CCOc1ccccc1N1CSc2nnc(-c3ccccc3)n2C1,–,> 100 µM,–
CC=C(CBr)CCC(Br)C(C)(C)Cl (mixture of isomers),–,> 10 µM,–
CCN(Cc1ccccc1F)c1ccc(CO)c(Cl)c1,3.85 µM,23.4 µM,–
CC(C)=CC1CC(=O)C1(C)Sc1ccccc1 (stereo unspecified),–,> 100 µM,–
O=c1ssc2c1Nc1c(ssc1=O)S2,–,32.1 µM,–
O=C(O)/C=C/C=C/c1ccc2c(c1)OCO2,–,> 100 µM,–
O=C(Nc1ccc(F)cc1)C(=O)C(C(=O)c1ccccc1F)C1OC(=O)c2ccccc21 (stereo unspecified),–,> 100 µM,–
NC(N)=N/N=C/c1oc(-c2ccc(S(=O)(=O)O)o2)c(-c2ccc(S(=O)(=O)O)o2)c1[N+](=O)[O-],–,> 100 µM,–
O=c1[nH]nc(Cc2ccccc2)n1/N=C/c1ccc(/C=N/n2c(Cc3ccccc3)n[nH]c2=O)cc1,–,> 100 µM,–

SMILES,GI50,TGI,outcome
COc1cc(C(=O)N2CCN(c3ccccn3)CC2)c(N)cc1OCc1ccccc1,> 100 µM,> 100 µM,–
CCOC(=O)/C(ON)=C(/CC/C(C(=O)OC)=C(\ON)C(=O)OCC)C(=O)OC,–,> 100 µM,–
Cc1cc(S(=O)(=O)O)ccc1N=Nc1c(O)ccc2ccccc12,–,> 100 µM,–
C[O+]=c1cccc2ssnc1-2,–,> 100 µM,–
CC(C)Cc1ccc(C(C)C(=O)NCc2ccc(Cn3c(=O)sn(CCCCl)c3=O)cc2)cc1 (stereo unspecified),2.13 µM,5.92 µM,–
O=C(Nn1cc(F)c(=O)[nH]c1=O)C12CC3CC(CC(C3)C1)C2,–,> 100 µM,–
COC(=O)C1(Cc2ccccc2)Cc2cc3c(cc2C1)CCC3,–,78.1 µM,–
COC(=O)C1(COCc2ccccc2)CCCC2OC21 (stereo unspecified),–,–,inactive
O=C1c2ccccc2-c2c1c1ccc([N+](=O)[O-])cc1c(=O)n2CCCN1CCOCC1,12 µM,> 84.9 µM,–
Cc1ccc(S(=O)(=O)NNC(=O)Nc2ccc(Cl)cc2)cc1,–,> 100 µM,–
CC(=O)O[C@H]1CC[C@]2(C)[C@H]3CC=C4[C@@H]5CC(C)(C)CC[C@]5(C(=O)NCCNCCNCCN)CC[C@@]4(C)[C@]3(C)CC[C@H]2C1(C)C,1.58 µM,2.94 µM,–
COc1cccc(C(=O)c2sc(Nc3ccc(N4CCN(C(C)C)CC4)cc3)nc2N)c1,1.85 µM,> 15.9 µM,–
CCOC(=O)C1=C(C)N=C2SC=C(c3ccccc3)N2[C@H]1c1cn[nH]c1-c1ccc(Cl)cc1,11.8 µM,24.5 µM,–
O=C(CI)OCC(COC(=O)CI)OC(=O)CI,17 µM,35.6 µM,–
CCCCCNC(=O)c1cc2cc(CCl)ccc2oc1=O,–,7.28 µM,–
CCC(=O)O[C@@H]([C@H](C)[C@H]1OC(CC)=C(C)C(=O)[C@@H]1C)[C@@H](C)C(=O)CC,> 100 µM,> 100 µM,–
CCCCCCCCCCCCCCCCCC(=O)NCC(COP(=O)([O-])OCC[N+](C)(C)C)OC (stereo unspecified),–,26.3 µM,–
CC(C)(C)OC(=O)NC(Cc1ccc(OCc2ccccc2)cc1)C(=O)NC(COCc1ccccc1)C(=O)Oc1c(Cl)c(Cl)c(Cl)c(Cl)c1Cl (stereo unspecified),–,78.5 µM,–
COc1ccc(N=NC(=O)NC(CC(C)C)C(=O)NC(Cc2ccccc2)C(=O)O)cc1 (stereo unspecified),–,> 100 µM,–
S=c1sc2c(s1)SCc1cccc(n1)CSc1sc(=S)sc1SCc1cccc(n1)CS2,–,> 100 µM,–
COc1ccc(C(=O)c2c(C(C(=O)c3ccc(OC)cc3)C(=O)c3ccc(OC)cc3)n(C(=O)c3ccc(OC)cc3)c3ccccc23)cc1,–,> 100 µM,–
N#CC1(Cc2ccccc2)CCCCN1C(=O)c1ccccc1 (stereo unspecified),–,> 100 µM,–
c1ccc2nc3c(cc2c1)Sc1cc2ccccc2[n+]2c1N3CC2,53.6 µM,> 100 µM,–
CN(C)C(=S)/N=C1\SC(=Nc2ccccc2)C(=Nc2ccccc2)N1c1ccc([N+](=O)[O-])cc1,–,> 100 µM,–
O=c1cnnc2sc(=S)[nH]n12,–,> 100 µM,–
CCCCCCCCCCCCCCCCSC(=NCC)NCC,3.28 µM,11.3 µM,–

SMILES,GI50,TGI,outcome
C#CCCCC(=C)C[C@@H]1OC(=O)[C@H](C)[C@@H]1O,–,> 100 µM,–
O=C1/C(=N\O)C2CCC1C2 (stereo unspecified),–,> 100 µM,–
O=C(Cc1csc2nc(-c3ccc(Br)cc3)cn12)N/N=C/c1ccccc1,19 µM,94 µM,–
COc1ccc(NC(=O)CC(=O)NN)cc1,–,> 100 µM,–
CS(=O)(=O)Nc1ccc(Nc2c3ccccc3nc3cc([N+](=O)[O-])ccc23)cc1,4.39 µM,17.7 µM,–
Cc1cc(-c2ccc[nH]2)on1,–,> 100 µM,–
Cc1cc2c(cc1C)[n+](=O)c(C(=O)C(C)(C)C)c(C(F)(F)F)n2[O-],39.2 µM,> 100 µM,–
CCOc1ccc(Nc2nc(C)c(C(=O)/C=C/c3ccc(Cl)cc3Cl)s2)cc1,–,> 100 µM,–
COc1ccc2c(NCCCCCCCCNc3c4ccccc4nc4cc(OC)ccc34)c3ccccc3nc2c1,0.0461 µM,0.308 µM,–
CCCCCCSC[C@H](OC(C)=O)[C@@H](OC(C)=O)[C@@H](OC(C)=O)[C@@H](COC(C)=O)OC(C)=O,–,> 100 µM,–
CCOC(=O)c1nnsc1NC(=O)NCCCCCCn1c(=O)n(CCCCCCNC(=O)Nc2snnc2C(=O)OCC)c(=O)n(CCCCCCNC(=O)Nc2snnc2C(=O)OCC)c1=O,–,> 100 µM,–
Cc1ccc(N=Nc2c(C)nn(-c3ccccc3)c2-c2ccccc2)c(Br)c1,–,> 100 µM,–
COC1C(O)CC(OC2CC(OC3CC(O[C@@H]4C(=O)c5c(cc6cc(OC7CC(OC8CC(O)C(O)C(C)O8)C(O)C(C)O7)c(C)c(O)c6c5O)CC4[C@H](OC)C(=O)C(C)=O)OC(C)C3O)OC(C)C2O)OC1C (stereo partly specified),0.0114 µM,0.114 µM,–
COc1cc2c3c(n(CCCn4ccnc4)c(=O)c2cc1OC)-c1cc2c(cc1C3=O)OCO2,0.0576 µM,1.03 µM,–
N#CCC(=O)N/N=C(\CCN1CCCC1)CC(c1ccccc1)c1c(O)c2ccccc2oc1=O (stereo unspecified),–,> 100 µM,–
CC(=O)NNc1nc(C)c(C(=O)NNC(=O)C(=O)Nc2c(C)cccc2C(C)C)s1,–,> 100 µM,–
COP(=O)(CC(=O)C1OC(C)(C)OC1C(O)COCc1ccccc1)OC (stereo unspecified),–,> 100 µM,–
O=C(NCc1ccccc1)c1cc2ccccc2oc1=Nc1ccccc1F,–,> 100 µM,–
Clc1ccc(OCCSCCCCCCCCCCSCCOc2ccc(Cl)cc2)cc1,–,> 100 µM,–
COc1ccc2c(c1)OCC1Cc3cc4c(cc3OC21)OCO4 (stereo unspecified),–,> 100 µM,–
CN(C)c1ccc(C(C#N)NNC(=O)Cc2ccccc2)cc1 (stereo unspecified),–,> 100 µM,–
C=C1C(=O)OC2C1C(=O)C/C(C)=C/CCC1(C)OC21 (stereo unspecified),–,> 100 µM,–
COc1cc(/C=C2\CCc3ccccc3C2=O)ccc1O,–,31 µM,–
O=C(COc1ccc2c(=O)cc(-c3ccc(Cl)cc3)oc2c1)N1CCN(c2ccccc2)CC1,–,> 100 µM,–
Cc1ccc(S(=O)(=O)n2cc(/C=C/C#N)c(/C=C/C#N)c2)cc1,–,> 100 µM,–
CCOC(NC(=O)CC)(C(F)(F)F)C(F)(F)F,–,> 100 µM,–

SMILES,GI50,TGI,outcome
CCCCN(CCCC)CC(C(=O)Nc1ccccc1)/C(C)=N\NC(=O)c1ccncc1 (stereo unspecified),–,> 100 µM,–
O=C1Nc2ccccc2/C1=C/C(=O)c1ccc(N2CCCC2)cc1,4.28 µM,> 100 µM,–
O=[N+]([O-])c1ccc(N/N=C2\C=CCCC2)c([N+](=O)[O-])c1,–,> 100 µM,–
CN[C@H](C)[C@@H](OC)c1ccccc1,–,> 100 µM,–
COc1cc(Nc2c(C#N)[n+]([O-])c3ccccc3[n+]2[O-])cc(OC)c1OC,–,> 100 µM,–
Cc1[nH]c(-c2ccccc2)c(O)c1C(=O)OC12CC3CC(CC(C3)C1)C2,–,29.3 µM,–
O=C1N[C@H](Cc2cnc[nH]2)C(=O)N2CCC[C@@H]12,–,> 100 µM,–
Cc1[nH]c2ccccc2c1-c1n[nH]c(=O)c2ccccc12,–,87.3 µM,–
Nc1ncc(-c2ccc3ncnc(N4CCc5ccc(Cl)cc54)c3c2)cn1,1.27 µM,67 µM,–
O=C1Nc2ccc(Cl)cc2C(=O)N2CCC[C@@H]12,–,> 100 µM,–
CCCCCCCCCc1c(Cl)nc(Cl)nc1Cl,–,31.8 µM,–
COc1ccc(/C=N/Nc2nc(-c3cc4oc(=O)n(C)c4cc3Cl)cs2)cc1OC,–,> 100 µM,–
Cc1ccc(C2C(C(=O)C(C)(C)C)N2S(=O)(=O)c2ccc(C)cc2)cc1 (stereo unspecified),–,> 100 µM,–
O=CC12c3ccccc3C(c3ccccc31)C1C(=O)NC(=O)C12 (stereo unspecified),–,> 100 µM,–
C/C(=N\NC(=O)c1ccc(C(C)(C)C)cc1)c1ccc(O)cc1O,0.383 µM,> 100 µM,–
OC[C@@H]1CC#C/C=C\C#CC[C@@H]1CO,–,> 100 µM,–
CC12OC(CC(O)C1O)n1c3ccccc3c3c4c(c5c6ccccc6n2c5c31)C(=O)N(CCN1CCCC1)C4=O (stereo unspecified),1.73 µM,11 µM,–
COc1ccc2nc3cc(Cl)ccc3c(Nc3ccc(O)c(CN4CCN(C)CC4)c3)c2c1,–,3.46 µM,–
Nc1nc[n+](Cc2ccccc2)c2ncn(Cc3ccccc3)c12,–,> 100 µM,–
O=c1[nH]c2nc3ccccc3n2c(O)c1-c1ccccc1,–,> 100 µM,–
CN(C)c1ccc(/C=C(\C#N)c2nc(-c3cc4ccccc4oc3=O)cs2)cc1,–,> 50 µM,–
OCCCc1n(Cc2ccc3ccccc3c2)c2ccccc2[n+]1Cc1ccc2ccccc2c1,2.15 µM,9.1 µM,–
S=C1C(=Nc2ccccc2)N(C2CCCCC2)C(=NC2CCCCC2)N1c1ccccc1,–,> 100 µM,–
